These results are taken from the supplement of paper PMC9588766.

Several values for one entry are separate records, joined by “and”; a condition that tells them apart may be missing. Equal values may be shown once. Where a name gives a salt, the structure may show the parent alone. In all, about 1,900 compounds were measured (“cell viability of compound + 1 nM pemigatinib relative to pemigatinib-only (DMSO) wells”: median about 0.95, lowest 2% from about 0.22 on). This is one part of the list.

This assay has as its system PDC-DUC18828. In words: cell viability of compound + 1 nM pemigatinib relative to pemigatinib-only (DMSO) wells (fraction); PDC-DUC18828 is a patient-derived cholangiocarcinoma cell line; higher = less growth inhibition. As to conditions: first compound 1 µM; pemigatinib concentration 1 nM; 72 h. How it is done:
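Selleck Bioactive library screen in the patient-derived FGFR2 fusion-positive ICC cell line PDC-DUC18828 (500 cells/well). Each compound was tested at 1 uM with 1 nM pemigatinib, in triplicate, for 72 h. Viability was read by CellTiter-Glo and normalised to plate DMSO controls. Value is the paper's averaged normalised viability.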
Take `O=C(NCCO[N+](=O)[O-])c1cccnc1` [Nicorandil] + CCN1C(=O)N(c2c(F)c(OC)cc(OC)c2F)Cc2cnc3[nH]c(CN4CCOCC4)cc3c21 [pemigatinib]: the cell viability worked out at 0.936.
In the case of `C[C@H]1C[C@H]2[C@@H]3CCC4=CC(=O)C=C[C@]4(C)[C@@]3(F)[C@@H](O)C[C@]2(C)[C@@]1(O)C(=O)CO` [Betamethasone] + CCN1C(=O)N(c2c(F)c(OC)cc(OC)c2F)Cc2cnc3[nH]c(CN4CCOCC4)cc3c21 [pemigatinib], the cell viability came to 0.956.
With `Oc1ccc(OCc2ccccc2)cc1` [Monobenzone] + CCN1C(=O)N(c2c(F)c(OC)cc(OC)c2F)Cc2cnc3[nH]c(CN4CCOCC4)cc3c21 [pemigatinib], the cell viability turned out to be 1.06.
The same measure for `CCOC(=O)Nc1cc(-c2ccc(C)c(NS(C)(=O)=O)c2)nn2c(C)nnc12` [Bromosporine] + CCN1C(=O)N(c2c(F)c(OC)cc(OC)c2F)Cc2cnc3[nH]c(CN4CCOCC4)cc3c21 [pemigatinib]: 1.05.
The value for `Cc1cc2c(F)c(Oc3ncnn4cc(OC[C@@H](C)OC(=O)[C@H](C)N)c(C)c34)ccc2[nH]1` + CCN1C(=O)N(c2c(F)c(OC)cc(OC)c2F)Cc2cnc3[nH]c(CN4CCOCC4)cc3c21 [pemigatinib] was 0.951; that for `C[C@@H]1CCN(C(=O)CC#N)C[C@@H]1N(C)c1ncnc2[nH]ccc12` + CCN1C(=O)N(c2c(F)c(OC)cc(OC)c2F)Cc2cnc3[nH]c(CN4CCOCC4)cc3c21 [pemigatinib] was 0.912 and 0.924.
The same measure for `C#CC[C@H](c1nc2cc(Cl)ccc2c(=O)n1Nc1ccccc1)N(CCCN)C(=O)c1cccc(Cl)c1F` + CCN1C(=O)N(c2c(F)c(OC)cc(OC)c2F)Cc2cnc3[nH]c(CN4CCOCC4)cc3c21 [pemigatinib]: 0.281.
Turning to `COCC[n+]1c2c(n(Cc3cnccn3)c1C)C(=O)c1ccccc1C2=O` [YM155 (Sepantronium Bromide)] + CCN1C(=O)N(c2c(F)c(OC)cc(OC)c2F)Cc2cnc3[nH]c(CN4CCOCC4)cc3c21 [pemigatinib], the cell viability was determined as 0.00992.
On to `O=C(NCCO)c1cccc(-c2cc(Nc3ccc(OC(F)(F)F)cc3)ncn2)c1` + CCN1C(=O)N(c2c(F)c(OC)cc(OC)c2F)Cc2cnc3[nH]c(CN4CCOCC4)cc3c21 [pemigatinib], for which the cell viability was 0.989.
Take `COc1ccc([C@]2(C#N)CC[C@@H](C(=O)O)CC2)cc1OC1CCCC1` [Cilomilast] + CCN1C(=O)N(c2c(F)c(OC)cc(OC)c2F)Cc2cnc3[nH]c(CN4CCOCC4)cc3c21 [pemigatinib]: the cell viability worked out at 1.01.
For `O=S(=O)(O)NC1CCCCC1` [Cyclamic  acid] + CCN1C(=O)N(c2c(F)c(OC)cc(OC)c2F)Cc2cnc3[nH]c(CN4CCOCC4)cc3c21 [pemigatinib], the cell viability was found to be 0.923.
The same measure for `O=c1oc2ccccc2c(O)c1Cc1c(O)c2ccccc2oc1=O` [Dicoumarol] + CCN1C(=O)N(c2c(F)c(OC)cc(OC)c2F)Cc2cnc3[nH]c(CN4CCOCC4)cc3c21 [pemigatinib]: 0.975; for `CS(=O)(=O)N1CCc2c(-c3cnc(N)nc3)nc(N3CCOCC3)nc21` + CCN1C(=O)N(c2c(F)c(OC)cc(OC)c2F)Cc2cnc3[nH]c(CN4CCOCC4)cc3c21 [pemigatinib]: 0.799; for `CC(=O)[C@]1(O)Cc2c(O)c3c(c(O)c2[C@@H](O[C@H]2C[C@H](N)[C@H](O)[C@H](C)O2)C1)C(=O)c1ccccc1C3=O` [Idarubicin HCl] + CCN1C(=O)N(c2c(F)c(OC)cc(OC)c2F)Cc2cnc3[nH]c(CN4CCOCC4)cc3c21 [pemigatinib]: 0.119.
As for `CCCOc1ccn2c(C(C)=O)cc(-c3ccccc3S(C)(=O)=O)c2c1` + CCN1C(=O)N(c2c(F)c(OC)cc(OC)c2F)Cc2cnc3[nH]c(CN4CCOCC4)cc3c21 [pemigatinib], the cell viability was determined as 0.946.
The same measure for `CC(/C=C1\SC(=S)N(CC(=O)O)C1=O)=C\c1ccccc1` [Epalrestat] + CCN1C(=O)N(c2c(F)c(OC)cc(OC)c2F)Cc2cnc3[nH]c(CN4CCOCC4)cc3c21 [pemigatinib]: 0.994.
With `O=C1c2ccccc2C(=O)c2c1ccc(O)c2O` [Alizarin] + CCN1C(=O)N(c2c(F)c(OC)cc(OC)c2F)Cc2cnc3[nH]c(CN4CCOCC4)cc3c21 [pemigatinib], the cell viability stood at 0.933.
The same measure for `Cc1nc(=O)c2cc(CN(C)c3ccc(C(=O)N[C@@H](CCC(=O)O)C(=O)O)s3)ccc2[nH]1` [Raltitrexed] + CCN1C(=O)N(c2c(F)c(OC)cc(OC)c2F)Cc2cnc3[nH]c(CN4CCOCC4)cc3c21 [pemigatinib]: 0.981; for `C=CC(=O)Nc1cccc(Oc2nc(Nc3ccc(N4CCN(C)CC4)cc3OC)ncc2Cl)c1` + CCN1C(=O)N(c2c(F)c(OC)cc(OC)c2F)Cc2cnc3[nH]c(CN4CCOCC4)cc3c21 [pemigatinib]: 0.966.
The same measure for `O=C(/C=C/c1ccc(O)c(O)c1)OCCc1ccccc1` [Caffeic Acid Phenethyl Ester] + CCN1C(=O)N(c2c(F)c(OC)cc(OC)c2F)Cc2cnc3[nH]c(CN4CCOCC4)cc3c21 [pemigatinib]: 0.865; for `CC(C)CC(CC(=O)NO)C(=O)N[C@@H](Cc1ccc2ccccc2c1)C(=O)N[C@@H](C)C(=O)NCCN` (some centres undefined) + CCN1C(=O)N(c2c(F)c(OC)cc(OC)c2F)Cc2cnc3[nH]c(CN4CCOCC4)cc3c21 [pemigatinib]: 0.971; for `COc1ccc([C@@H]2CC(=O)c3c(O)cc(O[C@@H]4O[C@H](CO)[C@@H](O)[C@H](O)[C@H]4O[C@@H]4O[C@@H](C)[C@H](O)[C@@H](O)[C@H]4O)cc3O2)cc1O` [Neohesperidin] + CCN1C(=O)N(c2c(F)c(OC)cc(OC)c2F)Cc2cnc3[nH]c(CN4CCOCC4)cc3c21 [pemigatinib]: 0.974.
The value for `CC(=O)OCC(CCn1cnc2cnc(N)nc21)COC(C)=O` [Famciclovir] + CCN1C(=O)N(c2c(F)c(OC)cc(OC)c2F)Cc2cnc3[nH]c(CN4CCOCC4)cc3c21 [pemigatinib] was 0.862.
For the compound `C[C@H](CCC(=O)O)[C@H]1CC[C@H]2[C@@H]3[C@H](O)C[C@@H]4C[C@H](O)CC[C@]4(C)[C@H]3CC[C@]12C` [Chenodeoxycholic Acid] + CCN1C(=O)N(c2c(F)c(OC)cc(OC)c2F)Cc2cnc3[nH]c(CN4CCOCC4)cc3c21 [pemigatinib], the cell viability was 0.958.
